In all, about 370,000 compounds went through this assay and about 150 (0.041%) were called active. Inconclusive means that the source gave no clear call. Such entries were picked first, then a sample of the others. Calls come from the whole dose curve; as a rule, active = well fitted inhibition curve with a large enough effect; inconclusive = small, poorly fitted or top-dose-only effect; inactive = flat fitted curve, though single readings scatter. No potency is given beside an inconclusive call; the fits are too rough.
What follows are compounds tested against Beta-lactamase (Escherichia coli (strain K12)) (UniProt P00811) (assay: qHTS Inhibitors of AmpC Beta-Lactamase (assay with detergent)). Conditions: AmpC hydrolysis of nitrocefin, absorbance 480 nm, 0.01% Triton; series mostly up to 114 µM.
Sequence of UniProt P00811 (P00811 whole entry, looked up): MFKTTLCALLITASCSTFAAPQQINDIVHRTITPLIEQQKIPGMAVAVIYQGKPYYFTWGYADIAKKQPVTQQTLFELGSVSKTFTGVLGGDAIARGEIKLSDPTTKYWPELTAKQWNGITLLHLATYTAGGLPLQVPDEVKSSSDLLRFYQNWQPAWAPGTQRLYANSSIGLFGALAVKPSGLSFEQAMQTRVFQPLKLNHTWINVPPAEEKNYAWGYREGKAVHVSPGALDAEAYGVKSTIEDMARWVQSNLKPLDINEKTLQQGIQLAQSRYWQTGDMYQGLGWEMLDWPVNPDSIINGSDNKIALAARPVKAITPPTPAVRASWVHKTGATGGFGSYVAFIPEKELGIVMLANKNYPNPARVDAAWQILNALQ
Outline: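 AmpC (5.3 nM in the dispensed reagent) in 20 mM phosphate pH 7.0 with 0.01% (detergent screen) or 0.0001% Triton X-100 was preincubated with compounds for 15 min at room temperature. Nitrocefin was then added from an 800 uM solution, and hydrolysis was followed at 480 nm.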
O=C(O)CN1C(=O)c2cccc(Oc3ccc(Cl)cc3)c2C1=O was tested, and the Potency was inconclusive [inhibitor, full curve, poor fit]. In the case of CC(C)(C)OC(=O)c1c(N)n(Cc2ccco2)c2nc3ccccc3nc12, the Potency is reported as inconclusive [inhibitor, partial curve, poor fit]. With CC1Oc2ccccc2OC1C(=O)Nc1ccccn1 (stereo unspecified) the Potency was inconclusive [inhibitor, full curve, poor fit]. COc1ccc(CN2CCNC(=O)C2CC(=O)NCCCn2cccn2)cc1C (stereo unspecified) was tested, and the Potency was “inactive”. In the case of COc1ccccc1CC(=O)N(CCC1=CCCCC1)c1c(N)n(Cc2ccccc2)c(=O)[nH]c1=O, the Potency is reported as inconclusive [inhibitor, full curve, poor fit]. With Cc1ccc(NC(=O)c2ccc(Nc3ccccc3F)nc2)cc1 the Potency was inconclusive [inhibitor, partial curve, poor fit]. With Cc1cccc(C)c1OCc1cc(C(=O)N2CCC(c3ccncc3)CC2)no1 the Potency was “inactive”. In the case of Cc1ccc(N2C(=O)NC3(CCCCC3)C2=O)cc1, the Potency is reported as inconclusive [inhibitor, full curve, poor fit]. In the case of O=C1NC(=O)C(=Cc2ccc(-c3ccccc3[N+](=O)[O-])o2)C(=O)N1, the Potency is reported as “inactive”. With Cc1ccc(/C=N/N2CCN(Cc3cccc4ccccc34)CC2)o1 the Potency was inconclusive [inhibitor, full curve]. In the case of COc1ccc(CCNC(=O)COC(=O)c2ccccc2NCCO)cc1OC, the Potency is reported as inconclusive [inhibitor, full curve, poor fit]. With CCCCNS(=O)(=O)c1cccc(S(=O)(=O)N2CCCC2)c1 the Potency was inconclusive [inhibitor, partial curve, poor fit]. With Cc1ccc(NC(=O)c2ccc(NCCN)c([N+](=O)[O-])c2)cc1Cl the Potency was inconclusive [inhibitor, full curve, poor fit]. For CCN1CC=C2C(C#N)=C(N)C(C#N)(C#N)[C@H](c3cccc(OC)c3OC)[C@H]2C1, the Potency was inconclusive [inhibitor, partial curve, poor fit]. With CCOC(=O)c1cnc2c(C)c(-c3ccccc3)[nH]n2c1=O the Potency was inconclusive [inhibitor, partial curve, poor fit]. O=C(C1=C[C@H](c2ccc(Br)cc2)C[C@H](OCCCCO)O1)N1CCN(Cc2ccccc2)CC1 was tested, and the Potency was “inactive”. In the case of COc1cc([C@@H]2CC=C(C(=O)O)[C@H](c3ccc(Cl)cc3)N2S(=O)(=O)c2ccc(C)cc2)cc(OC)c1OC, the Potency is reported as inconclusive [inhibitor, partial curve]. With O=C(CSc1ncccn1)N/N=C/c1cccs1 the Potency was inconclusive [inhibitor, single point]. For CCCN1C2=NCCN2c2ccccc21, the Potency was inconclusive [inhibitor, full curve, poor fit]. For Cc1ccc(S(=O)(=O)Nc2cc3c4c(c2)CCC(=O)N4CCC3)cc1, the Potency was inconclusive [inhibitor, partial curve]. COC(=O)c1ccc(NS(=O)(=O)c2ccc(SC)cc2)cc1 was tested, and the Potency was inconclusive [inhibitor, full curve, poor fit]. CCOCCCN1C(=O)CN(C2CCCCCC2)C(=O)C1c1ccc(OC)cc1 (stereo unspecified) was tested, and the Potency was inconclusive [inhibitor, full curve, poor fit]. CC(=O)NC(c1ccc(C)cc1)c1cc([N+](=O)[O-])c2cccnc2c1O (stereo unspecified) was tested, and the Potency was “inactive”. In the case of O=C(NC1CC(=O)N(c2ccc(Cl)cc2)C1)C1CC1 (stereo unspecified), the Potency is reported as inconclusive [inhibitor, partial curve]. COc1ccc(CN(C(=O)c2snc(C(N)=O)c2N)C(C(=O)NC(C)(C)C)c2ccco2)cc1 (stereo unspecified) was tested, and the Potency was inconclusive [inhibitor, full curve, poor fit]. With O=C(NCc1ccccn1)Nc1ccccc1 the Potency was “inactive”. CCCn1nnc(NC(=S)NC(=O)C(C)(C)C)n1 was tested, and the Potency was inconclusive [inhibitor, partial curve, poor fit]. For CCC(=O)Nc1nnc(S(=O)(=O)N2CCCC2)s1, the Potency was inconclusive [inhibitor, partial curve]. With O=C1CC2(CCN(C(=O)c3cccc(Cl)c3)CC2)Oc2ccccc21 the Potency was “inactive”. In the case of COc1cccc(C(=O)NCc2nc(-c3ccccc3)no2)c1OC, the Potency is reported as “inactive”. CSc1nnc2n(C3CCCCC3)c(=O)c3c4c(sc3n12)CCCC4 was tested, and the Potency was inconclusive [inhibitor, full curve, poor fit]. In the case of O=C(Nc1nc2cc3c(cc2s1)OCO3)C1CCCCC1, the Potency is reported as “inactive”. C/C(=N\NC(=O)Cc1c(C)[nH][nH]c1=O)c1ccc2ccccc2c1 was tested, and the Potency was inconclusive [inhibitor, partial curve]. For O=C(Cn1cc(SCc2cccc(Cl)c2)c2ccccc21)N1CCCCCC1, the Potency was “inactive”. For CC(=O)NC1C(OCCOc2ccc(Cl)cc2Cl)OC(COC(C)=O)C(OC(C)=O)C1OC(C)=O (stereo unspecified), the Potency was inconclusive [inhibitor, partial curve]. For Cc1[nH]n(-c2ccccc2)c(=O)c1N=Nc1cccc([N+](=O)[O-])c1, the Potency was inconclusive [inhibitor, partial curve, poor fit]. For CC(c1ccccc1)[n+]1ccccc1 (stereo unspecified), the Potency was inconclusive [inhibitor, partial curve, poor fit]. Cc1ccc(C(=O)CC2(O)C(=O)N(C)c3ccc(Br)cc32)c(C)c1 (stereo unspecified) was tested, and the Potency was inconclusive [inhibitor, partial curve, poor fit]. In the case of O=C(CNCc1ccc(Cl)cc1)Nc1ccc(C(=O)N2CCCCC2)cc1, the Potency is reported as “inactive”. For CC(O)CO (stereo unspecified), the Potency was “inactive”. Cc1ccc2c(c1)nnn2C1CCN(CC(=O)c2ccc(Cl)cc2)CC1 was tested, and the Potency was inconclusive [inhibitor, full curve, poor fit]. With Cc1ccc(SCC(=O)OCC(=O)N(CC(C)C)c2c(N)n(Cc3ccccc3)c(=O)[nH]c2=O)cc1C the Potency was inconclusive [inhibitor, single point]. With Cc1ccc(S(=O)(=O)N/N=C2/CCCCC2C2CCCCC2)cc1[N+](=O)[O-] (stereo unspecified) the Potency was inconclusive [inhibitor, full curve, poor fit]. In the case of Cc1ccc2c(c1)c(N=NC(N)=S)c(O)n2Cc1ccccc1, the Potency is reported as inconclusive [inhibitor, partial curve]. For NNc1nc2cccnc2n(CCNc2ncc(C(F)(F)F)cc2Cl)c1=O, the Potency was “inactive”. For CCN(Cc1cc2cc(C)ccc2[nH]c1=O)C(=O)c1cccc(OC)c1, the Potency was inconclusive [inhibitor, full curve, poor fit]. For CC(=O)N1c2c(cc(Br)cc2S(=O)(=O)Nc2c(C)n(C)n(-c3ccccc3)c2=O)CC1C (stereo unspecified), the Potency was inconclusive [inhibitor, single point]. With COc1ccc(O)c(CN2CCC(n3nccc3NC(=O)c3ccccc3Cl)CC2)c1 the Potency was inconclusive [inhibitor, single point]. In the case of COc1cc2c(cc1OC)/C(=C/c1ccc(Br)cc1)C(=O)OC2, the Potency is reported as “inactive”. In the case of Cc1cnc2cc([N+](=O)[O-])ccc2n1, the Potency is reported as inconclusive [inhibitor, partial curve]. In the case of CC(C)C[C@H](NC(=O)c1nc[nH]c1C(=O)N[C@@H](CC(C)C)C(=O)OC(C)(C)C)C(=O)OCc1ccccc1, the Potency is reported as inconclusive [inhibitor, partial curve]. In the case of C(=C\c1ccccc1)/CN1CCN(C(c2ccccc2)c2ccccc2)CC1, the Potency is reported as inconclusive [inhibitor, partial curve, poor fit]. COCCCn1c(=NC(=O)c2ccc3c(c2)OCO3)c(C#N)cc2c(=O)n3cccc(C)c3nc21 was tested, and the Potency was inconclusive [inhibitor, partial curve]. CN(CC(=O)Nc1ccc(Cl)cc1)C(=O)c1cccc(S(=O)(=O)N2CCN(Cc3ccccc3)CC2)c1 was tested, and the Potency was inconclusive [inhibitor, single point]. COc1ccc(NC(=S)NNC(=O)c2cccs2)cc1 was tested, and the Potency was inconclusive [inhibitor, full curve, poor fit]. In the case of Cc1ccc(C)c(OCCSc2nnc(C)c(=O)[nH]2)c1, the Potency is reported as “inactive”. O=C(CNC(c1ccccc1)c1ccccc1)Nc1c(F)cccc1F was tested, and the Potency was inconclusive [inhibitor, partial curve, poor fit]. With CCCc1cc(=O)[nH]c(SCC(=O)NC(=O)c2ccccc2)n1 the Potency was inconclusive [inhibitor, full curve]. With COc1ccc(-c2noc(CNC(=O)c3ccco3)n2)cc1 the Potency was “inactive”. With COc1ccc(NC(=O)CN2CCC(C)CC2)cc1 the Potency was “inactive”. COc1cccc(NC(=O)Cn2cc(C(=O)C3CC3)c3ccccc32)c1 was tested, and the Potency was inconclusive [inhibitor, full curve, poor fit]. Cc1ccccc1OCCCCCn1ccnc1 was tested, and the Potency was inconclusive [inhibitor, full curve]. In the case of CC#CC[N+](C)(C)CCCCCCCCCC, the Potency is reported as “inactive”. With CC(=O)N1C2CCCCC2S[C@H]2CCCCC21 (stereo partly specified) the Potency was inconclusive [inhibitor, full curve, poor fit]. With O=C(CSCc1ccccc1Cl)NNC(=O)c1ccccc1 the Potency was inconclusive [inhibitor, full curve, poor fit]. For O=C1CCC(C(=O)N2CCCCO2)CN1Cc1cccc(F)c1 (stereo unspecified), the Potency was inconclusive [inhibitor, full curve].

From PubChem BioAssay AID485294 (National Center for Advancing Translational Sciences (NCATS), 2010)
Note: nearly all actives have a fitted effect of over 25% in size.
Potency is the fitted concentration of half-maximal effect; tags give direction and shape of the fitted curve.
